ChEMBL document CHEMBL4888484, “Replenishing the malaria drug discovery pipeline: Screening and hit evaluation of the MMV Hit Generation Library 1 (HGL1) against asexual blood stage Plasmodium falciparum ,using a nano luciferase reporter read-out” (2022)
In all, about 150,000 compounds went through this assay and about 540 (0.36%) showed an effect of 50% or more. The list shows a part of the results.

System: Plasmodium falciparum
Experiment: Primary screen in NF54 nanoGlo assay, in single point, at 2uM, 72h; a lower Z score goes with more inhibition
Format: functional, Erythrocyte
Conditions: timepoint 72 hour

Row | Compound | % Inhibition [%] | Z score
1 | CN1CCN(CC(=O)N2CCCc3ccccc32)CC1 | -3 | 0.5
2 | O=C(COc1ccc2ccccc2c1)N1CCC(C(=O)N2CCCCCC2)CC1 | -5 | 0.77
3 | O=C(CN1CCc2cncnc2C1)N1CCCc2ccccc21 | -5 | 0.77
4 | O=C(Nc1ccc(F)cc1)c1c(O)c2cnn(-c3ccc(F)cc3)c2[nH]c1=O | -14 | 1.87
5 | COCCc1noc([C@H](C)NC(=O)CN2CCN(C)C2=O)n1 | -12 | 1.05
6 | CCCn1c(C)nnc1Cn1cnc(C#N)n1 | 2 | -0.18
7 | CN(C)c1cnc(C(=O)NC(C)(C)c2nnc3n2CCCC3)cn1 | -10 | 1.42
8 | O=C(Nc1cccc2[nH]ccc12)N(CCO)C1CC1 | -11 | 1.08
9 | CCOc1ccc(-c2cc(C(F)(F)F)nn2-c2nc(-c3ccc(F)cc3)cs2)cc1 | 0 | 0.04
10 | CCCCC[n+]1ccc(N2C(=O)c3ccccc3C2=O)cc1 | -3 | 0.42
11 | CC(NC(=O)OC(C)(C)C)C(Cc1ccccc1)OC(=O)c1cnn2cccnc12 (stereo not drawn) | -6 | 1.01
12 | O=C(c1cncc(N2CCC[C@H](c3ccn(CCO)n3)C2)n1)N1CCOCC1 | -8 | 0.97
13 | O=C(c1cc(-c2ccc(F)cc2)n[nH]1)N1CCCCC[C@H]1c1cccc(F)c1 | -10 | 1.44
14 | Clc1cccc(CN2CCCn3cccc3[C@H]2c2cccc(Oc3ccccc3)c2)c1 | -18 | 1.71
15 | CCc1ccc(CCC(=O)N2CCC[C@@]3(CNC(=O)O3)C2)cc1 | 8 | -1.17
16 | N=C(N)NCc1ccccc1C(F)(F)F | -4 | 0.45
17 | CCn1nc(C2CCOCC2)nc1-c1ccc(-n2cnnc2)cc1 | -6 | 0.92
18 | COc1cccc(Cn2nnc3cc(C(=O)N4CCN(c5cc(C)ccc5C)CC4)ccc32)c1 | -8 | 0.83
19 | FC1(F)CC(Nc2cncc(-n3cccn3)n2)C1 | 6 | -1.13
20 | CC(C)N(CC(N)=O)Cc1cc(Cl)ccc1OCc1cccnc1 | -1 | 0.13
21 | CCC(Cc1ccc(F)cc1)NC(=O)N1CCC[C@@H]1CS(C)(=O)=O (stereo partly drawn) | -10 | 1.86
22 | Cc1cccc2c1ccn2CC(=O)N=c1[nH]c2ccccc2[nH]1 | 6 | -0.9
23 | Cc1ccc(OCc2ccc(C(=O)N(C)C[C@H](C)c3nnn[nH]3)o2)c(C)c1 | -8 | 0.98
24 | O=C(NC[C@@H]1COc2ccccc2C1)c1cnc2ccccn12 | -7 | 0.89
25 | Cc1cccc(C2C(C(=O)NCc3cccnc3)c3ccccc3C(=O)N2C2CC2)c1 (stereo not drawn) | -10 | 0.97
26 | O=C(Cc1ccccc1)N(Cc1ccco1)C1CCOCC1 | -10 | 1.51
27 | CCCC(NCC1(C)CCC(=O)N1)C1CCCC1 (stereo not drawn) | -10 | 1.05

Row | Compound | % Inhibition [%] | Z score
28 | CC(C)[C@H](CCO)NC(=O)c1ccc(NCCc2ccccn2)cc1 | -9 | 1.22
29 | CC(C)c1ccc(S(=O)(=O)N2CCC(C(=O)N[C@H](c3ccccc3F)c3nccn3C)CC2)cc1 | -7 | 0.56
30 | Cc1ccc(NC(=O)N2CC(n3cc(CO)nn3)C2)cc1C | -1 | 0.22
31 | COCC[C@]1(NC(=O)c2ccc(F)cc2)CCN(C(=O)COC)C1 | -1 | 0.06
32 | C[C@H]1C(=O)NCCN1C(=O)Nc1ccccc1CC(=O)OC(C)(C)C | 0 | -0.03
33 | CCc1nsc(N2CCOC[C@@H]2C)n1 | 3 | -0.49
34 | Cc1nc(-c2cc3ccccc3nc2N2CCNCC2)no1 | -15 | 2.92
35 | CC(C)(NC(=O)c1ccccc1)c1nc(-c2cccnc2Oc2ccccc2)no1 | 29 | -3.23
36 | CN(C)C(=O)CN1CCC2(CC1)C[C@@H](c1ccccc1)C(=O)N(C)C2 | -4 | 0.82
37 | Cc1ccccc1N1CCN(c2ncccc2CNc2ncccc2C(=O)O)CC1 | -12 | 2.05
38 | Cc1noc2nc(C3CC3)cc(C(=O)NC3CCC(O)CC3)c12 (stereo not drawn) | 5 | -0.71
39 | Cc1cc(C)n(C)c(=O)c1C(=O)N1CCC[C@H](c2nnc3ccccn23)C1 | 7 | -1.26
40 | COc1ccccc1CNC(=O)Cn1ccc2ncccc2c1=O | -7 | 0.9
41 | COCCO[C@H]1[C@H](NC(=O)C(C)C)c2ccccc2C12CCN(Cc1cc(C)c(OC)cc1C)CC2 | 13 | -1.7
42 | c1cc2c(o1)CCCN(Cc1nc(C3CC3)no1)C2 | -4 | 0.52
43 | COc1cccc(NC(=O)Cn2nc3ncccn3c2=O)c1 | -1 | 0.07
44 | O=C(CCn1nnc2ccccc2c1=O)N1CCN2CCC1C2 (stereo not drawn) | 8 | -1.01
45 | O=C(c1ccccn1)N1CC(n2cc(COc3ccncc3)nn2)C1 | 0 | 0.01
46 | O=C(NCCCN1CCCCC1)c1cccc(-c2ccc(NCc3ccccc3)nn2)c1 | -6 | 1.16
47 | CO[C@@H](C)CS(=O)(=O)Oc1ccc(-n2ccnc2)cc1 | -4 | 0.53
48 | O=C(NCc1cncc(O)c1)[C@H]1C[C@@H]1c1c(F)cccc1Cl | -10 | 1.92
49 | c1ccc(Oc2ccc(-n3nnnc3N3CCC[C@H](c4ncc[nH]4)C3)cc2)cc1 | -33 | 2.9
50 | Cc1cc(C(=O)Nc2nnc([C@H]3CC(=O)N(c4ccccc4)C3)o2)c(C)o1 | -8 | 1.2
51 | C[C@H]1Cc2ccccc2N1Cc1ccncc1Cl | -1 | 0.21
52 | COCC1(NC(=O)c2cc(C)n([C@@H](C)C3CC3)n2)CCOCC1 | 0 | 0.04
53 | CCc1csc(CNc2ccc3cc[nH]c3n2)n1 | 4 | -0.43
54 | Cc1csc([C@H](C)N(C)C(=O)c2cnn(-c3ccccc3)c2)n1 | -4 | 0.81
